According to article PMC6056059:
Results are given in words; binding and its absence hold for the method and conditions named. For some assays here: In cells and extracts the contact can be indirect. Some entries that bind do so weakly or less than the wild type. For some assays here: Where a sequence is shown, tags or fusion partners need not be part of it. Each block holds one molecule with its values, some of them ahead of it.

By UniProt entry, the sequences of proteins in these tests, tags left out.
UniProt Q7L5Y9: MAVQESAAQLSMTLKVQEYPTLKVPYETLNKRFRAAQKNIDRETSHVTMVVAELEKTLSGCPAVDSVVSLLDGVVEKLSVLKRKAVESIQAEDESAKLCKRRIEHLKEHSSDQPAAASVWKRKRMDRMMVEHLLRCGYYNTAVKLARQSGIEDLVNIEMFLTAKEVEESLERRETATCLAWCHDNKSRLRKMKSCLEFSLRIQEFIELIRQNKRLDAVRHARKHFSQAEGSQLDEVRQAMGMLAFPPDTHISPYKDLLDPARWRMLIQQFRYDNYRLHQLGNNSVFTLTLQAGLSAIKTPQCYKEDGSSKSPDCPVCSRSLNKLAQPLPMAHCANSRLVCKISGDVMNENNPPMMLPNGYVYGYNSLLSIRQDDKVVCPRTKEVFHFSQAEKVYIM
UniProt Q8IUR7: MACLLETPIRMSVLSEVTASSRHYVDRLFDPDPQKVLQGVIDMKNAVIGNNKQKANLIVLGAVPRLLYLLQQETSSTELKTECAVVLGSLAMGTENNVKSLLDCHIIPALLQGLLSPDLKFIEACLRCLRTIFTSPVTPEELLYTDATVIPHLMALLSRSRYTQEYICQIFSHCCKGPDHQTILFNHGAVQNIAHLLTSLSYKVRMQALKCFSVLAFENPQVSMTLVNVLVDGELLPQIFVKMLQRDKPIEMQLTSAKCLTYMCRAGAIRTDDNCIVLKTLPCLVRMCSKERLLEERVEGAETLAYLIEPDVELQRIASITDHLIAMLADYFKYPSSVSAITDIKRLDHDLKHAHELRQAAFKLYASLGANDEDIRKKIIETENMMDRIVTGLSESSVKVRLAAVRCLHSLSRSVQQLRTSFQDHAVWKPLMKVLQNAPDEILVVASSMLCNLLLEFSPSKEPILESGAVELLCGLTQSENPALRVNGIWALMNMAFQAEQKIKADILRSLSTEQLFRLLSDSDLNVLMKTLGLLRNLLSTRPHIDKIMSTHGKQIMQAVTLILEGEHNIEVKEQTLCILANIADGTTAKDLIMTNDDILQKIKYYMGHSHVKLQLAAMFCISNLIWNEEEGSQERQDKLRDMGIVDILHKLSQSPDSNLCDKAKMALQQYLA
UniProt Q9H871: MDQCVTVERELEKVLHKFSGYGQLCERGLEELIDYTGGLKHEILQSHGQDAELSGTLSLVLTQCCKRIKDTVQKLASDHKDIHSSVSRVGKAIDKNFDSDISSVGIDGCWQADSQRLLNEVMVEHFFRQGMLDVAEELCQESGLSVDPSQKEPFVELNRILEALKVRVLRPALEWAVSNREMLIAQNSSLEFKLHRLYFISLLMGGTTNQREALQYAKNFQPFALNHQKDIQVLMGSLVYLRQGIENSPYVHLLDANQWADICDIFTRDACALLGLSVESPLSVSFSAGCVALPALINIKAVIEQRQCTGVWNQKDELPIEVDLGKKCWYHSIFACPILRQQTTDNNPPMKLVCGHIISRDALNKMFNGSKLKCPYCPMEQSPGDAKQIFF

What was measured:
[1] = biological target: T1, Bicc1-D913K915E916/AAA (MutD), yeast two-hybrid fusion (mouse) (UniProt Q99MQ1); assay: two-hybrid; Gal4-BD (pGBKT7) and Gal4-AD (pACTII) fusions, each protein as bait and as prey; HIS3 reporter, growth on Leu-, Trp-, His- medium with 3-AT titration, three days at 30°C
T1 sequence: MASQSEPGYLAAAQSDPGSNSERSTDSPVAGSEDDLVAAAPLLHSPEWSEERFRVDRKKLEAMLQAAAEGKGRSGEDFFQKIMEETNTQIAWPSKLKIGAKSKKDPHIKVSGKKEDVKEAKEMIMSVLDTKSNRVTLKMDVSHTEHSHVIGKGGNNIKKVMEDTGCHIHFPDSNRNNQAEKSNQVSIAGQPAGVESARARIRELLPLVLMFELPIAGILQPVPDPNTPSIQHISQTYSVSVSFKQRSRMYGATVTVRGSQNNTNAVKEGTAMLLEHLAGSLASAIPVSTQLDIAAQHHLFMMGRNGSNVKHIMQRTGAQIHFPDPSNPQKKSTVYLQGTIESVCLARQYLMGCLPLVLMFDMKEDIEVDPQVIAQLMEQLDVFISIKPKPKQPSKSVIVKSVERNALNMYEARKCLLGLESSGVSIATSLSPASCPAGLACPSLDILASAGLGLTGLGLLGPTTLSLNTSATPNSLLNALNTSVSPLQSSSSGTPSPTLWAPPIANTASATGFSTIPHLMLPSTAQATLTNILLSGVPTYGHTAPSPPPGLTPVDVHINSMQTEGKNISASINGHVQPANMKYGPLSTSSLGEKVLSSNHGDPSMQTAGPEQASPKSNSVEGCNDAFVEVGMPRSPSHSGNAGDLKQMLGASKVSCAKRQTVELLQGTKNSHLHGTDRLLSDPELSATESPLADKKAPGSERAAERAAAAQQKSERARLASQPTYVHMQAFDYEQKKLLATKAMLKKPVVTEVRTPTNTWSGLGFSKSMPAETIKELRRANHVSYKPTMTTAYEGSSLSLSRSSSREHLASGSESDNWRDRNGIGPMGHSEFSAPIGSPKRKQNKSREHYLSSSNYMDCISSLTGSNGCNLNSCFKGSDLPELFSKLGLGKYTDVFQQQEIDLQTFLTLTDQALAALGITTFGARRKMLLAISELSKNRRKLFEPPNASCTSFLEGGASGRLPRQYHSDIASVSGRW

[2] = biological target: MAEA, yeast two-hybrid fusion (human) (UniProt Q7L5Y9); assay: as above
[3] = biological target: T2, Bicc1 SAM domain, yeast two-hybrid fusion (mouse) (UniProt Q99MQ1); assay: as above
T2 sequence: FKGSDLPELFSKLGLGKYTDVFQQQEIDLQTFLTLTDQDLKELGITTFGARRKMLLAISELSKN

HA-Bicc1 (mouse) = biological target: T3, HA-Bicc1 (mouse) (UniProt Q99MQ1); assay: co-IP; transfected HEK293T extracts (TBS, 1 mM DTT, 0.05% NP-40); anti-HA agarose, anti-FLAG M2 gel or anti-MKLN1; 2 hrs at 4°C; Western blot; mock-transfected cells or pre-immune IgG as control; in Fig 6E with or without cotransfected Flag-ANKS3 or Flag-ANKS3ΔC
T3 sequence: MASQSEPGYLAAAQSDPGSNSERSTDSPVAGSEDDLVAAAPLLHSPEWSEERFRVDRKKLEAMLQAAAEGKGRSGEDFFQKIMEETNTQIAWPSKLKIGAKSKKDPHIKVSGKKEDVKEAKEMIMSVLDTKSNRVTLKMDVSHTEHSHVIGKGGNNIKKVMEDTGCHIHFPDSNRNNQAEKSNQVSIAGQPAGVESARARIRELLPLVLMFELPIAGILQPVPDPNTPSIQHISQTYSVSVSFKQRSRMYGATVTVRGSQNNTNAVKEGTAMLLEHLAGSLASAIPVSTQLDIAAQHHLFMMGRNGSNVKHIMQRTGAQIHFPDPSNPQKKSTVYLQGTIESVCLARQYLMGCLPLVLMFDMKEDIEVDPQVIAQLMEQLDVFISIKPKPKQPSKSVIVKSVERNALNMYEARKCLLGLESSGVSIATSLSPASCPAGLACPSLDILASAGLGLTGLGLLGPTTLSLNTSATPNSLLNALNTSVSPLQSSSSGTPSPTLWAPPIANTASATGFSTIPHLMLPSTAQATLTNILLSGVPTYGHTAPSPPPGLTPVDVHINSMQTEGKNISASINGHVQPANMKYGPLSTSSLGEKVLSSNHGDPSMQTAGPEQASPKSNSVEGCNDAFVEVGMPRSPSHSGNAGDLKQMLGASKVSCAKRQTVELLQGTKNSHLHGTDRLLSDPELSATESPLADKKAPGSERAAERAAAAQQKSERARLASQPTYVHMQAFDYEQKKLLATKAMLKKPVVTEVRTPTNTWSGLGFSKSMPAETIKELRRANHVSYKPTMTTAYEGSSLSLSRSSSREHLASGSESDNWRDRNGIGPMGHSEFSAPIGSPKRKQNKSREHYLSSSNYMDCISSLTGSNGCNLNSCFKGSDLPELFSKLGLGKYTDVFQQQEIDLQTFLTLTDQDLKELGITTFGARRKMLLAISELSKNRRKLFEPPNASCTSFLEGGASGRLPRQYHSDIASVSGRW

[4] = biological target: T4, endogenous Bicc1 (mIMCD3 cells) (mouse (endogenous in mIMCD3)) (UniProt Q99MQ1); assay: co-IP; endogenous Bicc1 immunoprecipitated from mIMCD3 cell extracts with a custom anti-Bicc1 antibody on protein G Sepharose; pre-immune IgG as control; Western blot
T4 sequence: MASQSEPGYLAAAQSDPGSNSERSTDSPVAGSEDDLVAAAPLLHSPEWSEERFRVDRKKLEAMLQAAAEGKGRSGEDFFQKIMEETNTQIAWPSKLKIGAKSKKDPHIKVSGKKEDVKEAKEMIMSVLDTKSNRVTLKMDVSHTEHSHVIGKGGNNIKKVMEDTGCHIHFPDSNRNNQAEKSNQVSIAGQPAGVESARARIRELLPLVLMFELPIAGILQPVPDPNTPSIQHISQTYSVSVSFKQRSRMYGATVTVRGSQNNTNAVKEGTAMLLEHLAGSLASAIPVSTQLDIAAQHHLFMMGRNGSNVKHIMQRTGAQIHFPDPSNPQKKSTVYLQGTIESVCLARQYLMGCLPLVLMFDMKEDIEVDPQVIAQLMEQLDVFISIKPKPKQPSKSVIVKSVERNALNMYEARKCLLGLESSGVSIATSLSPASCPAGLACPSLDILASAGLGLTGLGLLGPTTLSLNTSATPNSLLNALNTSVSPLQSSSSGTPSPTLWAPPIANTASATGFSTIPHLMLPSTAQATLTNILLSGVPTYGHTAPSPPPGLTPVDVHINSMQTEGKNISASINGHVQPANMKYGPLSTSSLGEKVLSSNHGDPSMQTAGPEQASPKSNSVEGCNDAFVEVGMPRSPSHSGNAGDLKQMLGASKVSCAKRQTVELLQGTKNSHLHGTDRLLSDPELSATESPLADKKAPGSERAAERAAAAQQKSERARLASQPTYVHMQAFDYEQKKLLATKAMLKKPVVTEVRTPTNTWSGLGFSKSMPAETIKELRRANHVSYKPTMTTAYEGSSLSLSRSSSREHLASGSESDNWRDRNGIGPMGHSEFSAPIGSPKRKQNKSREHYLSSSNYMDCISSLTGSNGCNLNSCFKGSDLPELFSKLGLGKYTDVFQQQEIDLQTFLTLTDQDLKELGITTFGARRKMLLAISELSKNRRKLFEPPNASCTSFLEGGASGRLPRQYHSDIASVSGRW

[5] = biological target: T5, WT Bicc1, yeast two-hybrid fusion (mouse) (UniProt Q99MQ1); assay: two-hybrid; Gal4-BD (pGBKT7) and Gal4-AD (pACTII) fusions, each protein as bait and as prey; HIS3 reporter, growth on Leu-, Trp-, His- medium with 3-AT titration, three days at 30°C
T5 sequence: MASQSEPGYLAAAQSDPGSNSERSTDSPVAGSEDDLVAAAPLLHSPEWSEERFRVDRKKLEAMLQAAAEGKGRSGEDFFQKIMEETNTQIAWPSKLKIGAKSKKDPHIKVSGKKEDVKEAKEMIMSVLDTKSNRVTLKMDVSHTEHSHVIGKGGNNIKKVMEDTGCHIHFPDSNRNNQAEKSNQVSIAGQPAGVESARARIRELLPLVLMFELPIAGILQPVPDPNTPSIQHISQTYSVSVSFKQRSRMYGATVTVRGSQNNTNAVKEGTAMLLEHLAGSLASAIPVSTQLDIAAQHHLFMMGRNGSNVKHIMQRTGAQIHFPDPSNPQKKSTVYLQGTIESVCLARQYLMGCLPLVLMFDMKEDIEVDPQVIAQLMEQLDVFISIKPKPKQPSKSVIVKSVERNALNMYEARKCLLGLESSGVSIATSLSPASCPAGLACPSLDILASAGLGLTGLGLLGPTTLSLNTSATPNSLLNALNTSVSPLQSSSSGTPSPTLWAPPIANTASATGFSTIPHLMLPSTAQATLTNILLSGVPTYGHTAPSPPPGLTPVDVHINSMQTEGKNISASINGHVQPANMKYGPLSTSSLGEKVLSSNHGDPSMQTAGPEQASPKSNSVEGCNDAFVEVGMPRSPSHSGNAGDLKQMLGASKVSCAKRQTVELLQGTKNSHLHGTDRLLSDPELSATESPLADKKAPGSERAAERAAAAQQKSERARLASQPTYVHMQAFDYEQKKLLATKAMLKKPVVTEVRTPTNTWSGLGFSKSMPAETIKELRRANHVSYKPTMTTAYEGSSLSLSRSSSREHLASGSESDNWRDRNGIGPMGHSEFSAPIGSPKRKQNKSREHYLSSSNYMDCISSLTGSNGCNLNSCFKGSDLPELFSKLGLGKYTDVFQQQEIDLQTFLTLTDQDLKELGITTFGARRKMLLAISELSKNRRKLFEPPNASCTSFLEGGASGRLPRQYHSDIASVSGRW

Molecule: ARMC8, yeast two-hybrid fusion (from UniProt Q8IUR7 1-673)
- binding [1]: binds
- binding [3]: no binding

B1: Flag-tagged ANKS3 (protein, UniProt Q6ZW76 1-656)
chain: MSELSDEASEPELLNRSLSMWHGLGTQVSGEELDVPLDLHTAASIGQYEVVKECVQRRELDLNKKNGGGWTPLMYASYIGHDTIVHLLLEAGVSVNVPTPEGQTPLMLASSCGNESIAYFLLQQGAELEMKDIQGWTALFHCTSAGHQHMVRFLLDSGANANVREPICGFTPLMEAAAAGHEIIVQYFLNHGVKVDARDHSGATARMLAKQYGHMKIVALMDTYSPSLPKSLYRSPEKYEDLSSSDESCPAPQRQRPCRKKGVSIHEGPRALARITGIGLGGRAPRPRYEQAPPRGYVTFNSSGENPLEEEGLCCRDVTSPINERDVESSSSSSSREEHAFCANLGPVQSSSSSEGLARAQGLSSEASVESNEDSDHACKSSARKQAKSYMKTKNPDSQWPPRAATDREGFLAESSPQTQRAPYSGPQDLAALLEQIGCLKYLQVFEEQDVDLRIFLTLTESDLKEIGITLFGPKRKMTSAIARWHSSARPPGDALELAYADRLEAEMQELAIQLHKRCEEVEATRGQVCQEQELRAVVESCLLEQDRAREDLQARLRETWALARDAALVLDQLRACQAELSSRVRQDQPPGAATLGLAVPPADSKGWQASLQAMSLPELSGALEDRVREMGQALCLVTQSLEKLQVLNGKKWRET
- binding (HA-Bicc1 (mouse)): binds

B3: GID4, yeast two-hybrid fusion (protein, UniProt Q8IVV7 1-300)
chain: MCARGQVGRGTQLRTGRPCSQVPGSRWRPERLLRRQRAGGRPSRPHPARARPGLSLPATLLGSRAAAAVPLPLPPALAPGDPAMPVRTECPPPAGASAASAASLIPPPPINTQQPGVATSLLYSGSKFRGHQKSKGNSYDVEVVLQHVDTGNSYLCGYLKIKGLTEEYPTLTTFFEGEIISKKHPFLTRKWDADEDVDRKHWGKFLAFYQYAKSFNSDDFDYEELKNGDYVFMRWKEQFLVPDHTIKDISGASFAGFYYICFQKSAASIEGYYYHRSSEWYQSLNLTHVPEHSAPIYEFR
- binding [1]: no binding
- binding [5]: no binding

Second part, the molecule after the results:

- binding [1]: no binding
- binding [2]: binds
Molecule: RMND5A, yeast two-hybrid fusion (from UniProt Q9H871 1-391)

- binding [4]: binds
B2: endogenous WDR26 (mIMCD3 cells) (protein, UniProt Q8C6G8 1-641)
chain: MQANGAGGGGGGGGGGQGQTPELACLSAQNGESSPSATSAGDLAHANGLLPAAPSAAGNNSNSLSVNNGVPGGAAAASATAAAAQATPELGSSLKKKKRLSQSDEDVIRLIGQHLNGLGLNQTVDLLMQESGCRLEHPSATKFRNHVMEGDWDKAENDLNELKPLVHSPHAIVVRGALEISQTLLGIIVRMKFLLLQQKYLEYLEDGKVLEALQVLRCELTPLKYNTERIHVLSGYLMCSHAEDLRAKAEWEGKGTASRSKLLDKLQTYLPPSVMLPPRRLQTLLRQAVELQRDRCLYHNTKLDNNLDSVSLLIDHVCSRRQFPCYTQQILTEHCNEVWFCKFSNDGTKLATGSKDTTVIIWQVDPDTHLLKLLKTLEGHAYGVSYIAWSPDDSYLVACGPDDCSELWLWNVQTGELRTKMSQSHEDSLTSVAWNPDGKRFVTGGQRGQFYQCDLDGNLLDSWEGVRVQCLWCLSDGKTVLASDTHQRVRGYNFEDLTDRNIVQEDHPIMSFTISKNGRLALLNVATQGVHLWDLQDRVLVRKYQGVTQGFYTIHSCFGGHNEDFIASGSEDHKVYIWHKRSELPIAELTGHTRTVNCVSWNPQIPSMMASASDDGTVRIWGPAPFIDHQNIEEECSSMDS
